Experimental data as given in article PMC4336329 (PLoS ONE, 2015).
Among all 310,000 compounds or so, about 14,000 (4.5%) showed an effect of 50% or more. Effects have a minus sign here. The list shows a part of the results.

biological target: human ether-à-go-go-related gene (hERG) potassium channel (human, UniProt Q12809); experiment: primary screen, population patch clamp on CHO cells stably expressing hERG
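Also: peak tail current of the secondary pulse compared with the same well before compound.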

Sequence of human ether-à-go-go-related gene (hERG) potassium channel (Q12809 whole entry, looked up): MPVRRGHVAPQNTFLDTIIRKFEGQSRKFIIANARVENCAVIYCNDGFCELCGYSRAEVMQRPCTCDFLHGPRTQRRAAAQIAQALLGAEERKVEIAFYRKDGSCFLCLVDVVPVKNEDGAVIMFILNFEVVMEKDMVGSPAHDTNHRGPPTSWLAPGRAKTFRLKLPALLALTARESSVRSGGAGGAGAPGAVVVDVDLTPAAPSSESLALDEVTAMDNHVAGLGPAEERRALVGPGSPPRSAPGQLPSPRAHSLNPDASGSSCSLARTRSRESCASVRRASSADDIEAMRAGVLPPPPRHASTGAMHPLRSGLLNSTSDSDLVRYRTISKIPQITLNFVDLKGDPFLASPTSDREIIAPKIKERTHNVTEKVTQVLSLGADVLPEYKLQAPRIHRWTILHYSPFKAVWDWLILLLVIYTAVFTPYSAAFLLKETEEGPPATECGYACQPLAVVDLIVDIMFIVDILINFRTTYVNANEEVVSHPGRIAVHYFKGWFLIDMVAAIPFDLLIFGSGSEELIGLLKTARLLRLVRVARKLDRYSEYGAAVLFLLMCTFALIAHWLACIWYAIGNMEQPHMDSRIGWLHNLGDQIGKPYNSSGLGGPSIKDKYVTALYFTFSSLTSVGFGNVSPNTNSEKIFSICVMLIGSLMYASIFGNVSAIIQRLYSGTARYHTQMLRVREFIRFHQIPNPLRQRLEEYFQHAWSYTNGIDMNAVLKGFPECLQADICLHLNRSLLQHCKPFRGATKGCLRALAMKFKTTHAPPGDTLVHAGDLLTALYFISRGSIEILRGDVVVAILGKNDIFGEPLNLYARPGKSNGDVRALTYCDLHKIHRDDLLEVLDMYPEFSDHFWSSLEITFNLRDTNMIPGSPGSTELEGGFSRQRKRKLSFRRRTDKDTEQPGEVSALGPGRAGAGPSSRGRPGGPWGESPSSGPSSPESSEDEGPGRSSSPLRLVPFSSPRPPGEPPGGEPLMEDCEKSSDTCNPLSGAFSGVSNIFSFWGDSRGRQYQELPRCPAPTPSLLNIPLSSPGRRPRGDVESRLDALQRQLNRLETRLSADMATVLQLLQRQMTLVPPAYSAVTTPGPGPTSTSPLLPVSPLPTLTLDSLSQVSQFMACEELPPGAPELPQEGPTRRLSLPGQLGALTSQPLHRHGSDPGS

Going from `Cc1ccc(C(=O)N/N=C\c2cccc(OC(=O)c3cccc(F)c3)c2)cn1` to `O=C(N/N=C\c1cn(-c2ccccc2)nc1-c1ccccc1)c1ccc2c(c1)OCO2`, the “hERG current change (%, negative = inhibition) at 10uM” value falls from 11.8% to 11.3%.

Compared with `NC(=O)CC(NC(=O)c1ccc(Cl)cc1)C(=O)NCCc1ccc(S(N)(=O)=O)cc1` (centres unmarked), `NS(=O)(=O)c1ccc(CCNC(=O)Cc2cccs2)cc1` is lower in “hERG current change (%, negative = inhibition) at 10uM” value: 18.5% for the first, 12.2% for the second.

First: [N-]=[N+]=NC(c1ccccc1)c1nc2ccccc2[nH]c1=O (centres unmarked)
Second: CC(C)Sc1nc(-c2ccccc2)cc(=O)[nH]1
The “hERG current change (%, negative = inhibition) at 10uM” value of the first is lower: -7.74% for the first, 5.01% for the second.

Compared with `CCOC(=O)N1CCN(S(=O)(=O)c2cc(Br)cc3c2N(C(C)=O)C(C)C3)CC1` (centres unmarked), `O=C(CN1CCSC1=O)N1CCN(S(=O)(=O)c2ccccc2)CC1` is higher in “hERG current change (%, negative = inhibition) at 10uM” value: -10.8% for the first, -6.49% for the second.

Compared with `Cc1ccc2c(CC(=O)OC3CCOC3=O)coc2c1` (centres unmarked), `Cc1cc(=O)oc2c(C)c(OCC(=O)NCC3CCC(C(=O)O)CC3)ccc12` (centres unmarked) is higher in “hERG current change (%, negative = inhibition) at 10uM” value: 3.85% for the first, 5% for the second.

First: CC(C)(C)CC(=O)NCCCN1CCOCC1
Second: Cc1nnc(NCCN2CCOCC2)[nH]c1=O
The “hERG current change (%, negative = inhibition) at 10uM” value of the first is lower: 5.49% for the first, 9.72% for the second.

First: Cc1cc(C)n(-c2cc(Cl)cc(Cl)c2)c(=O)c1C#N
Second: Cc1ccc(S(=O)(=O)Nc2c(C)n(C)n(-c3ccccc3)c2=O)c(C)c1
The “hERG current change (%, negative = inhibition) at 10uM” value of the first is higher: 9.93% for the first, 9.47% for the second.

Going from `CC(C)(C)NC(=O)Cn1cnc2cc([N+](=O)[O-])ccc2c1=O` to `COC(=O)Cn1ncn2cccc2c1=O`, the “hERG current change (%, negative = inhibition) at 10uM” value rises from -1.13% to 9.57%.

First: COc1ccc(C(=O)Nc2cccc(-c3ccc(N4CCOCC4)nn3)c2)cc1OC
Second: COc1ccc(/C=C2\Sc3ccc(C(=O)N4CCOCC4)cc3N(C)C2=O)cc1
The “hERG current change (%, negative = inhibition) at 10uM” value of the first is higher: 4.55% for the first, -15.3% for the second.

Going from `O=C(NC1CCCCC1)N1CCC(c2nc(-c3ccc(S(=O)(=O)N4CCCC4)cc3)no2)CC1` to `O=C(NC1CCCCCC1)C1c2ccccc2C(=O)N1Cc1cccnc1` (centres unmarked), the “hERG current change (%, negative = inhibition) at 10uM” value falls from -0.594% to -3.16%.

Compared with `O=C(NC1CCCCC1)C(c1ccc(F)cc1)N(Cc1ccco1)C(=O)CN1C(=O)c2ccccc2S1(=O)=O` (centres unmarked), `O=C1c2cccnc2C(Nc2cccc(F)c2)N1Cc1ccco1` (centres unmarked) is higher in “hERG current change (%, negative = inhibition) at 10uM” value: -11.9% for the first, 27.1% for the second.

Going from `CN(c1ccccc1C(=O)O)S(=O)(=O)c1ccc2[nH]c(=O)[nH]c2c1` to `CC(=O)c1c(C)[nH]c(C(=O)OCC(=O)N(C)c2c(N)n(Cc3ccccc3)c(=O)[nH]c2=O)c1C`, the “hERG current change (%, negative = inhibition) at 10uM” value falls from 20.2% to -22.2%.

Going from `CC1CN(C(=S)Nc2ccc(F)cc2F)CC(C)O1` (centres unmarked) to `Cc1ccc(S(=O)(=O)NCCC(=O)N2CC(C)OC(C)C2)cc1C` (centres unmarked), the “hERG current change (%, negative = inhibition) at 10uM” value rises from -0.0905% to 7.48%.

Going from `COc1cccc(CN(CC2CCCO2)S(=O)(=O)c2ccc(S(=O)(=O)N(C)C)cc2)c1` (centres unmarked) to `CCOc1ccc(OCCN(C)Cc2ccccc2)cc1.O=C(O)C(=O)O`, the “hERG current change (%, negative = inhibition) at 10uM” value falls from 3.64% to -45.8%.

First: O=C(NCc1ccccn1)C1CC(c2ccccc2O)=NO1 (centres unmarked)
Second: CCOc1ccc(C(=O)NCC(=O)OCc2csc(-c3ccccc3)n2)cc1
The “hERG current change (%, negative = inhibition) at 10uM” value of the first is lower: 9.59% for the first, 14.6% for the second.

First: COn1c(-c2ccccc2)nc2c1CCc1c-2no[n+]1[O-]
Second: CCS(=O)(=O)c1ccc(-c2csc(-c3ccccc3)n2)c(Cl)c1Cl
The “hERG current change (%, negative = inhibition) at 10uM” value of the first is lower: 10.3% for the first, 18.1% for the second.

Compared with `COc1cc2nc(NC(=O)c3ccc(F)cc3Cl)sc(=O)c2cc1OC`, `COc1ccc(C2SCC(C(=O)O)N2C(C)=O)cc1OC` (centres unmarked) is lower in “hERG current change (%, negative = inhibition) at 10uM” value: 16.5% for the first, -5.53% for the second.

First: CC(Sc1ccc(Cl)cc1)C(=O)NNC(=O)c1ccccc1O (centres unmarked)
Second: Cc1ccc(C)c(NCC(=O)NNC(=S)Nc2ccccc2)c1
The “hERG current change (%, negative = inhibition) at 10uM” value of the first is lower: 10.7% for the first, 18% for the second.

Going from `C#CC(CC)(CC)NC(=S)Nc1cccc(C(C)=O)c1` to `CCC(C)NC(=O)CCn1c(-c2ccc(F)cc2)cc(C(C)=O)c1C` (centres unmarked), the “hERG current change (%, negative = inhibition) at 10uM” value rises from -14.4% to -14%.

Compared with `Cn1c(Cn2c(=O)sc3ccccc32)nnc1SCC(=O)N1CCOCC1`, `Cc1ccc(NC(=O)C(C)Sc2nnc(C)n2C2CC2)cc1S(=O)(=O)N1CCOCC1` (centres unmarked) is lower in “hERG current change (%, negative = inhibition) at 10uM” value: -3.37% for the first, -13.9% for the second.

Going from `CCOC(=O)c1c(C)n(-c2ccccc2)c2ccc(O)cc12` to `Cc1ccc(-n2nc(C)c(C3(O)C(=O)N(C(C)C)c4ccccc43)c2N)cc1` (centres unmarked), the “hERG current change (%, negative = inhibition) at 10uM” value falls from 13.8% to -4.89%.

Going from `Cc1c(OC(C)C(=O)NCc2ccncc2)ccc2c3c(c(=O)oc12)CCC3` (centres unmarked) to `CCOc1ccc(CCNC(=O)CCN2C(=O)COc3ccccc32)cc1OCC`, the “hERG current change (%, negative = inhibition) at 10uM” value rises from 1.38% to 5.33%.

Going from `N#Cc1nc(Cc2ccccc2)oc1N1CCCC1` to `O=C1CC(N2CCC(c3nc4ccccc4o3)CC2)C(=O)N1` (centres unmarked), the “hERG current change (%, negative = inhibition) at 10uM” value rises from -11.1% to 15.2%.

Going from `CCNC(=S)N1CCc2cc(OC)c(OC)cc2C1COc1ccc(F)cc1` (centres unmarked) to `CCOC(=O)C1(Cc2ccc(OC)cc2)CCN(S(C)(=O)=O)CC1`, the “hERG current change (%, negative = inhibition) at 10uM” value rises from -16.1% to 25.6%.

Going from `O=C(NCc1ccco1)/C(=C/c1ccc([N+](=O)[O-])cc1)NC(=O)c1ccco1` to `Cc1[nH]c2ccccc2c1/C=N/NC(=O)CNC(=O)c1ccco1`, the “hERG current change (%, negative = inhibition) at 10uM” value rises from -69.5% to 10.8%.

Going from `Cc1nc(CN(C)C(=O)CC2C(=O)NCCN2Cc2ccc(-c3ccccc3)cc2)cs1` (centres unmarked) to `COc1cc(NC(=O)CSCc2cnn(-c3ccccc3)c2-n2cccc2)cc(OC)c1`, the “hERG current change (%, negative = inhibition) at 10uM” value rises from -11.8% to 2.87%.

Compared with `CC1(Br)C2CCCC1C2S(=O)(=O)c1ccccc1` (centres unmarked), `CC1CCN(S(=O)(=O)c2ccc(NN=C(C#N)C#N)cc2)CC1` is lower in “hERG current change (%, negative = inhibition) at 10uM” value: 5.94% for the first, -36.1% for the second.

First: O=C(NCCCn1ccnc1)C1CCN(S(=O)(=O)c2ccc(F)cc2)CC1
Second: Cc1cc(NC2CCCCC2)nc(N2CCOCC2)n1
The “hERG current change (%, negative = inhibition) at 10uM” value of the first is higher: 13.5% for the first, -18.6% for the second.
